Experimental data from ChEMBL document CHEMBL4888484, “Replenishing the malaria drug discovery pipeline: Screening and hit evaluation of the MMV Hit Generation Library 1 (HGL1) against asexual blood stage Plasmodium falciparum ,using a nano luciferase reporter read-out” (2022).
Hit rate of the full screen: of about 150,000 compounds, about 540 (0.36%) showed an effect of 50% or more. Some of the results follow.

What follows are molecules tested on Plasmodium falciparum (assay: Primary screen in NF54 nanoGlo assay, in single point, at 2uM, 72h; a lower Z score goes with more inhibition). Settings: timepoint 72 hour.
Type: functional, Erythrocyte

**Q.** `CS(=O)(=O)Nc1nc2ccc(NC(=O)c3cc(-c4ccccc4)nc4ccccc34)cc2s1` was tested. Which “% Inhibition” value did it give?
**A.** 48%

**Q.** What about the Z score of the same molecule?
**A.** -4.83

**Q.** `Cc1cc(N2CCC(NC(=O)c3ncccn3)CC2)n[nH]1` was tested. Which “% Inhibition” value did it give?
**A.** 9%

**Q.** What about the Z score of the same molecule?
**A.** -1.13

**Q.** What does the source list for `CN(C)[C@H]1CCN(CC(=O)NCc2ccccc2C(F)(F)F)C1`?
**A.** % Inhibition: 3%; Z score: -0.65

**Q.** What does the source list for `CCCc1noc(Cn2nc(C)nc2-c2ccccn2)n1`?
**A.** % Inhibition: 3%; Z score: -0.4

**Q.** What does the source list for `Cc1ccc(C(=O)NC[C@@]23CNC[C@]2(C(F)(F)F)C3)cc1`?
**A.** % Inhibition: -6%; Z score: 0.87

**Q.** Which “% Inhibition” value does the source give for `CN1c2ccc(F)cc2OC[C@@H]1CC(=O)NCc1ccc(F)cc1` here?
**A.** -13%

**Q.** What about the Z score of the same molecule?
**A.** 2.28

**Q.** Which results are given for `Cc1nn(C)c2nc(N3C[C@H]4CCN(C)[C@H]4C3)sc12`?
**A.** % Inhibition: 16%; Z score: -2.13

**Q.** Which results are given for `Cn1nc2nc(N3CCN(Cc4ccc(F)cc4)CC3)nc(-c3ccc(F)c(Cl)c3)c2c1N`?
**A.** % Inhibition: -6%; Z score: 0.81

**Q.** For `CN1CC(=O)N(Cc2nc(C3CCCC3)nn2CC(F)(F)F)C1=O`, which “% Inhibition” value is on record?
**A.** -12%

**Q.** And the Z score?
**A.** 1.38

**Q.** What does the source list for `CCN(CC)C(=O)c1cc(C)cc(C)c1`?
**A.** % Inhibition: -13%; Z score: 1.46

**Q.** For `O=C(C[C@@]1(O)C(=O)N(CN2CCOCC2)c2ccccc21)c1ccc2c(c1)CCCC2`, which “% Inhibition” value is on record?
**A.** 4%

**Q.** And the Z score?
**A.** -0.48

**Q.** Which results are given for `COc1cccc(Cn2cnc3c(c2=O)COCC3)c1Cl`?
**A.** % Inhibition: 14%; Z score: -1.84

**Q.** How did the “% Inhibition” value turn out when `CCC1(CC)CNC(=O)[C@H]1NC(=O)CCc1ccc(F)cc1` was run?
**A.** -10%

**Q.** What about the Z score of the same molecule?
**A.** 1.8

**Q.** What does the source list for `O=c1ccc(-c2nnco2)cn1CN1CCN(S(=O)(=O)c2ccccc2)CC1`?
**A.** % Inhibition: -5%; Z score: 1.04

**Q.** What does the source list for `CCOc1ccc(C(=O)Nc2cnc(-n3nc(C)cc3C)nc2)cc1`?
**A.** % Inhibition: -6%; Z score: 0.93

**Q.** Which results are given for `COc1cc2ccc1Oc1cccc(c1)CO[C@H]1CN(C(=O)c3cc[nH]n3)C[C@@H]1NC(=O)CN(C1CC1)C(=O)CC2`?
**A.** % Inhibition: 7%; Z score: -0.91

**Q.** How did the “% Inhibition” value turn out when `Clc1ccc(O[C@H]2CCNC2)cc1Cl` was run?
**A.** 10%

**Q.** And the Z score?
**A.** -1.46

**Q.** Which results are given for `C[C@@H](c1nnnn1C1CC1)N1CCN(CC(=O)N(C)C2CCCCC2)CC1`?
**A.** % Inhibition: 6%; Z score: -1.09

**Q.** How did the “% Inhibition” value turn out when `Brc1cnn(Cc2cc(-c3ccccc3)on2)c1` was run?
**A.** -34%

**Q.** And the Z score?
**A.** 3.99

**Q.** What does the source list for `C[C@H]1CS(=O)(=O)CCN1CC(=O)N(C)C1CCCCC1`?
**A.** % Inhibition: -8%; Z score: 1.27

**Q.** How did the “% Inhibition” value turn out when `O=C(NC1CC1)C1CCN(C2CCN(C(=O)C#Cc3ccccc3)CC2)CC1` was run?
**A.** 0%

**Q.** And the Z score?
**A.** -0.02

**Q.** For `CCOC1CC(NC(CC)CC#N)C12CCC2` (configuration not stated), which “% Inhibition” value is on record?
**A.** 1%

**Q.** What about the Z score of the same molecule?
**A.** -0.16

**Q.** What does the source list for `COc1cc(N2CCC3(CC2)[C@H](O)C[C@@H]3OC)nc(N)n1`?
**A.** % Inhibition: -19%; Z score: 3.8

**Q.** Which “% Inhibition” value does the source give for `CNc1nc(C)ccc1C(=O)N1C[C@@H](C)[C@H](C(N)=O)C1` here?
**A.** -11%

**Q.** And the Z score?
**A.** 1.27

**Q.** How did the “% Inhibition” value turn out when `O=C(Cc1ccc(-n2cnnc2)cc1)N[C@H]1C[C@H](Oc2ccccc2)C1` was run?
**A.** 5%

**Q.** And the Z score?
**A.** -0.93

**Q.** For `O=C(Cc1ccccc1)N(c1ccc2oc(=O)sc2c1)S(=O)(=O)c1ccc(Cl)c(Cl)c1`, which “% Inhibition” value is on record?
**A.** -25%

**Q.** And the Z score?
**A.** 3.14

**Q.** `CCc1ccc(CN2CCC(C(=O)O)(n3ccc(C(C)(C)C)n3)CC2)o1` was tested. Which “% Inhibition” value did it give?
**A.** 2%

**Q.** And the Z score?
**A.** -0.14

**Q.** How did the “% Inhibition” value turn out when `O=C(CCc1ccccn1)N[C@H]1CNCCC1(F)F` was run?
**A.** 3%

**Q.** And the Z score?
**A.** -0.37

**Q.** Which results are given for `CCn1ncc2cc(C(=O)Nc3cn(C)c(=O)n(C)c3=O)c(C)nc21`?
**A.** % Inhibition: 3%; Z score: -0.38

**Q.** How did the “% Inhibition” value turn out when `O=C(C1CCCC(F)(F)C1)N1CCCC(Oc2ncccc2F)C1` (configuration not stated) was run?
**A.** 8%

**Q.** What about the Z score of the same molecule?
**A.** -1.15

**Q.** With `CC[C@@H]1Oc2ccc(C(=O)n3nc(C)cc3C)cc2N(Cc2ccccc2)C1=O` as the molecule, how does the “% Inhibition” value read?
**A.** -12%

**Q.** And the Z score?
**A.** 1.34

**Q.** Which results are given for `NC(=O)c1ccc(NC(=O)CC2(C(=O)O)Cc3ccccc3C2)cc1`?
**A.** % Inhibition: -13%; Z score: 1.08

**Q.** For `O=C1C[C@@H](C(=O)Nc2ccccc2F)n2ncc(-c3ccccc3)c2N1`, which “% Inhibition” value is on record?
**A.** 6%

**Q.** What about the Z score of the same molecule?
**A.** -0.95

**Q.** For `Nc1cccc(CC(=O)N2CCOC3CCCCC32)c1` (configuration not stated), which “% Inhibition” value is on record?
**A.** -8%

**Q.** What about the Z score of the same molecule?
**A.** 1

**Q.** With `O=C(COc1cccnc1)N[C@H]1CCCC[C@H]1CC(F)(F)F` as the molecule, how does the “% Inhibition” value read?
**A.** -7%

**Q.** What about the Z score of the same molecule?
**A.** 0.97

**Q.** With `CC(=O)N1CCC[C@](c2nnnn2CCC(C)C)(N2CCN(C(C)C)CC2)C1` as the molecule, how does the “% Inhibition” value read?
**A.** -9%

**Q.** What about the Z score of the same molecule?
**A.** 1.07

**Q.** What does the source list for `CCCc1nc(CNC(=O)c2cc[nH]c2C)cs1`?
**A.** % Inhibition: -17%; Z score: 1.49

**Q.** How did the “% Inhibition” value turn out when `CN(CCCC1CCCC1)Cc1cc(=O)[nH]c(=O)[nH]1` was run?
**A.** -2%

**Q.** What about the Z score of the same molecule?
**A.** 0.31

**Q.** For `Cc1nnc(CN[C@H]2CC(C)(C)OC2(C)C)n1C1CC1`, which “% Inhibition” value is on record?
**A.** -10%

**Q.** And the Z score?
**A.** 1.51

**Q.** Which results are given for `Fc1ccc(Br)c(CNC2C[C@@H]3COC[C@H]23)c1` (some centres not stated)?
**A.** % Inhibition: -9%; Z score: 1.68

**Q.** Which results are given for `CCn1cc(-c2nn(C)cc2C(=O)N2CCN3C(=O)NC(=O)[C@@H]3C2)cn1`?
**A.** % Inhibition: 21%; Z score: -2.41
